# The campaign covered roughly 310,000 compounds. About 14,000 (4.5%) showed an effect of 50% or more. Effects have a minus sign here. The list shows a part of the results.
# Biological target: human ether-à-go-go-related gene (hERG) potassium channel (human, UniProt Q12809)
# Experiment: primary screen, population patch clamp on CHO cells stably expressing hERG
# 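Further: peak tail current of the secondary pulse compared with the same well before compound.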
# Chain of human ether-à-go-go-related gene (hERG) potassium channel (Q12809 whole entry, looked up): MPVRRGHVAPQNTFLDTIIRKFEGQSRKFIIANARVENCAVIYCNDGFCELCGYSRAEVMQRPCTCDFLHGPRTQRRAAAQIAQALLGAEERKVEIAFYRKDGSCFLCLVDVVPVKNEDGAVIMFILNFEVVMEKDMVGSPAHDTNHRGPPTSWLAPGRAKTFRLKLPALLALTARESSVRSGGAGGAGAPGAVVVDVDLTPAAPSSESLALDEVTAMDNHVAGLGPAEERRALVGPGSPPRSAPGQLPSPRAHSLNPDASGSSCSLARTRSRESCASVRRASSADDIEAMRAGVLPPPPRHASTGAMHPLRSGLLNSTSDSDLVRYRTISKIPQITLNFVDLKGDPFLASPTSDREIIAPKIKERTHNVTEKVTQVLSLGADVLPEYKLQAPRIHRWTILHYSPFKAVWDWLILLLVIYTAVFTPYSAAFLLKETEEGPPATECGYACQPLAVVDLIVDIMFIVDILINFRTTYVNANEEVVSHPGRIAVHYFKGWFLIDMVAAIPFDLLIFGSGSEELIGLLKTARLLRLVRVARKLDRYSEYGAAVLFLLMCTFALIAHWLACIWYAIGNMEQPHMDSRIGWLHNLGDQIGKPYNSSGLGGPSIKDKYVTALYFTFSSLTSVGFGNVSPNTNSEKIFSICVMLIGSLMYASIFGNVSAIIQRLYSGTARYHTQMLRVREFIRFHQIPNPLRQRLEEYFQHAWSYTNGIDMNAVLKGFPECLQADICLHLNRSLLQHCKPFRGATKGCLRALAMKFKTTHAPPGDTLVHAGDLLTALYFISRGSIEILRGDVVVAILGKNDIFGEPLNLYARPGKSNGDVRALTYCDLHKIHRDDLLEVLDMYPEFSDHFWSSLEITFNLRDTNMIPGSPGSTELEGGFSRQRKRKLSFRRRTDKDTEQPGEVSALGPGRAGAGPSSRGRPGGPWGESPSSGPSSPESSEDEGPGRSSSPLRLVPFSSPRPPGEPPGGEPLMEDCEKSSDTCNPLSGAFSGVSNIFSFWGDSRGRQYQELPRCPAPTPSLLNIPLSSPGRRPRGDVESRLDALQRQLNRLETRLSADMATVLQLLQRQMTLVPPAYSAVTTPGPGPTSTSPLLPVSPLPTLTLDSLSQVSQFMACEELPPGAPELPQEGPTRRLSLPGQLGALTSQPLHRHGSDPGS
row,SMILES,"hERG current change (%, negative = inhibition) at 10uM [%]"
1,CCCNC(=O)[C@@H]1CCCN1C(=O)C1CCN(S(=O)(=O)c2ccc(C)cc2)CC1,7.97
2,COCc1cc(C)nc(OCC(=O)N/N=C/c2ccc(O)cc2)c1C#N,-10.9
3,CCc1ccc(-c2nc(CS(=O)CC(=O)NCc3ccccc3)c(C)o2)cc1 (centres unmarked),-14.9
4,Cc1ccc(CN2CCN(Cc3ccon3)CC2CCO)cc1 (centres unmarked),-11.1
5,COc1ccc(C(=S)N2CCN(c3cccc(Cl)c3)CC2)c(OC)c1,3.25
6,COC(=O)c1cc(OC)nc2c1c(=O)n(C)c(=O)n2C,3.17
7,O=C(O)c1cn(-c2ccccc2)nc1-c1ccncc1,35.1
8,COc1ccc(CNC(=S)NCc2ccc(Cl)cc2)cc1OC,-19.9
9,CCOC(=O)C1=C(C)NC(C)=C(C(=O)OCC)C1/C=C/c1ccccc1,0.683
10,CCOC(=O)C1=C(N)Oc2ccc3ccccc3c2C1c1ccc(O)c(OC)c1 (centres unmarked),8.82
11,Cc1nc(N2CCN(C(=O)c3cccs3)CC2)c2c3c(sc2n1)CCCC3,-63.8
12,COc1ccccc1NC1=NC(c2ccc(Cl)cc2)N=C(N)N1 (centres unmarked),-6.65
13,CCCCCCCC1c2c(c(C)c(C)oc2=O)Oc2c(C)c(C)oc(=O)c21,11.9
14,Cc1ccc(C(C(=O)NC2CCCCC2)N(CCCN2CCOCC2)C(=O)c2snc(C(N)=O)c2N)cc1 (centres unmarked),-17.8
15,O=C(NCCC1CCCCN1S(=O)(=O)c1ccc(Cl)cc1)C(=O)NCc1cccnc1 (centres unmarked),-46.3
16,Cc1ccc(CNC(=O)COC(=O)c2ccc(S(=O)(=O)N(C)C)cc2)cc1,11
17,Cc1ccc(CNC(=O)c2ccc(N3CCC4(CC3)CC(c3cccc(Br)c3)=NO4)c(NC(=O)c3ccccc3)c2)cc1,11.9
18,COc1ccc(N2CCN(C(=O)C3CC(=O)N(c4ccc(C)cc4)C3)CC2)cc1 (centres unmarked),-35.1
19,Cc1ccc(C(=O)COC(=O)c2cc(Cl)ccc2O)cc1[N+](=O)[O-],10.4

row,SMILES,"hERG current change (%, negative = inhibition) at 10uM [%]"
1,CCn1c(SCC(=O)Nc2cc(C)on2)nc2c(c1=O)SCC2,13.8
2,COc1ccc(CN2CC(C(=O)NCCc3ccccc3)CC2=O)cc1 (centres unmarked),-29.7
3,COC1CCN(C(=O)CC2C(=O)NCCN2CC2CCCCC2)CC1 (centres unmarked),13.3
4,N#CC1=C(N)N2C(=C(C#N)C1c1cccc(Br)c1)Nc1ccccc12 (centres unmarked),-11.4
5,COc1cc(-c2c(-c3ccc4c(c3)OCO4)noc2-c2ccsc2)ccc1F,10.1
6,COc1ccc(N(CC(=O)Nc2ccccc2C)S(=O)(=O)c2ccccc2[N+](=O)[O-])c(OC)c1,-4.45
7,O=Cc1cc(-c2ccccc2)[nH]c1-c1ccccc1,22.5
8,COc1ccccc1N1CCN(CC(O)COc2c(OC)cccc2OC)CC1.Cl (centres unmarked),-48.4
9,O=c1[nH]n(-c2ccccc2)c(=O)c(Cl)c1Cl,0.533
10,CCOC(=O)c1cc(C#N)c(N2CCCC2)nc1-c1ccccc1,-7.5
11,COC(=O)C1CN(C(=O)c2cccc(OC(F)F)c2)c2ccccc2O1 (centres unmarked),4.03
12,O=C(Cc1csc(Nc2nc(=S)[nH]c3ccccc23)n1)NCc1cccc(Cl)c1,-16.3
13,CC(C)CCOCC(=O)Nc1cccc(C(=O)O)c1,22.5
14,Cc1cc(S(=O)(=O)NCCN2CCOCC2)c(C)s1.Cl,8.27
15,O=C(O)c1ccc2c3n(nc2c1)-c1ccc(Cl)cc1CO3,0.84
16,Cc1ccc(N2CN=c3s/c(=C\c4cccnc4)c(=O)n3C2)cc1,-10.9
17,CCc1cccc(NC(=O)C(NC(=O)C2CCCCC2)C(C)C)c1 (centres unmarked),13.1
18,CC(C)N(Cc1nccn1C)C(=O)c1cc(COc2ccc(F)cc2Cl)on1,0.188
19,COc1ccc(-c2nc(Cn3c(SCc4ccc(F)cc4)nc4ccncc43)c(C)o2)cc1OC,-55.6

row,SMILES,"hERG current change (%, negative = inhibition) at 10uM [%]"
1,CCN1CCN(CCn2c(=S)[nH]c3ccccc3c2=O)CC1,-10.5
2,O=C(Nc1ccc(N2CCOCC2)c(F)c1)c1ccncc1,10
3,O=C(CN1C(=O)C2CC=CCC2C1=O)OCCN1C(=O)c2ccccc2C1=O (centres unmarked),3.66
4,CN(C)C(=O)c1c2c(nc3ccccc13)CCCC2,21.3
5,CCOC(=O)C1CCN(C(=O)C23CC4CC(CC(C4)C2)C3)CC1,-6.68
6,O=C(c1cc(-c2ccccc2)nc2ccccc12)N1CCCC1,2.55
7,O=[N+]([O-])c1ccc(Sc2cccc3cccnc23)cc1,-14.9
8,COc1ccc(NC(=O)Cc2coc3cc(C)ccc23)cn1,11.1
9,CCCOc1ccccc1NS(=O)(=O)c1ccc2[nH]c(=O)[nH]c2c1,2.91
10,COc1cccc(Oc2cn[nH]c2-c2ccc(OC)cc2O)c1,-3.27
11,COc1ccc(-c2nn(-c3ccccc3)cc2/C=N/Nc2ccc3ccccc3n2)cc1OC,5.14
12,O=C(C1CCCO1)N1CCN(S(=O)(=O)c2cc(F)ccc2F)CC1 (centres unmarked),17.7
13,CN1CCN(NC(=O)c2cc(-c3cccc(Cl)c3)nc3ccccc23)CC1,-35.9
14,Cc1ccc(C)c(OCCCC(=O)Nc2nccs2)c1,12.9
15,COc1cccc(NC(=O)CCc2c(C)nc3nc(CNC(=O)c4cccc(F)c4)nn3c2C)c1,-47.3
16,COc1ccc(CCC(=O)N2CCC3(CC2)OCCO3)cc1,-12.6
17,Clc1cccc(Cc2nn[nH]n2)c1,19.7
18,CCCCNC(=S)Nc1ccc(OC)nc1,30.8
